This list was built around the results that the source calls inconclusive (neither active nor inactive); the mix of calls is not that of the screen. Potencies of inconclusive entries are left out as doubtful fits. The source made the active and inactive calls. Calls follow the shape of the dose curve; as a rule, active = well fitted cell-killing curve with a large enough effect; inconclusive = small, poorly fitted or top-dose-only effect, or effect the other way; inactive = no such curve, though single readings can be large or run the other way.
assay: Viability qHTS for spleen associated tyrosine kinase inhibitor (SYKi) drug resistant MV4-11 cells (AID 1963824); details: SYKi-resistant MV4-11 viability, CellTiter-Glo, 72 h; series mostly up to 45 µM; also: nearly all actives have a fitted effect of over 35% in size
Outline: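 SYK-inhibitor-resistant MV4-11 AML cells were seeded at 500 per well onto compound and cultured 72 hours (37 °C, 5% CO2). CellTiter-Glo was then added, and after 10 min at room temperature, luminescence gave viability.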
Potency is read from the fitted curve at half-maximal effect; tags tell the direction and shape of the fitted curve.

Row | SMILES | Potency
1 | CCOC(=O)[C@H](CCc1ccccc1)N[C@@H](C)C(=O)N1Cc2cc(OC)c(OC)cc2C[C@H]1C(=O)O | inconclusive [cytotoxic, partial curve, poor fit]
2 | CC(=O)N(CC(O)CO)c1c(I)c(C(=O)NCCO)c(I)c(C(=O)NCC(O)CO)c1I (centres undefined) | inactive
3 | CCN(CC)CC(=O)Nc1c(C)cccc1C(=O)OC | inactive
4 | COc1cc(/C=C\c2ccc(O)cc2)cc(OC)c1 | inconclusive [cytotoxic, partial curve, poor fit]

From PubChem BioAssay (NCATS)
